This is one part of the list. At the low end of the ranking the order means little.

This assay deals with GST-SBP-SLBP (stem-loop binding protein) (UniProt Q14493). Description: targeted RNA Bind-n-Seq.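 Also: DESeq read counts versus GST-SBP nonspecific binding control pulldown.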 Particulars: RBNS binding buffer: 25 mM Tris pH 7.5, 150 mM KCl, 3 mM MgCl2, 0.1% Tween, 0.5 mg/mL BSA, 1 mM DTT; 27 nM protein, 750 pM RNA pool; temperature not stated; high values mean tight binding.
On to “GGUCACGUCUCAAUCAACUCUACUUCAGGAGUUUUCUCCUGUUAACUCAACAGCUCGCAGUCAAG”, for which the binding signal (log2 fold change) was 0.0995.
For “GGUCACGUCUCAAUCAACUCUAAAGAGGGGGGGAAAACCCCUUUACCCUCAUCUUCAACAGCUCGCAGUCAAG” the value was -0.0523.
As to “GGUCACGUCUCAAUCAACUCAUUCUCAGGAGUUUACUCCUGCUUACUCAACAGCUCGCAGUCAAG”, the binding signal (log2 fold change) was found to be 0.00153.
Then “GGUCACGUCUCAAUCAACUCUUUUCCAGGAGUUUUCUCCUGCUAACUCAACAGCUCGCAGUCAAG”, with 0.063.
For “GGUCACGUCUCAAUCAACUCAACUUCCAGGGAAAGCCCUGGUAUUCUCAACAGCUCGCAGUCAAG” the value was 0.107; for “GGUCACGUCUCAAUCAACUCAACUUCCAGGGAAACCCCUGGCAUUUUCAACAGCUCGCAGUCAAG”, 0.0233.
“GGUCACGUCUCAAUCAACUCCCUAGAGGGGGGGAAAACCCCUUUGCCCUCCGUAUCAACAGCUCGCAGUCAAG”: the binding signal (log2 fold change) came to 0.168.
Then “GGUCACGUCUCAAUCAACUCCAUGGAGGGGGGGAAAACCCCUUUACCCUCAACCUCAACAGCUCGCAGUCAAG”, with 0.122; and “GGUCACGUCUCAAUCAACUCUUUUCCCAGGGAAAGCCCUGGCAUUCUCAACAGCUCGCAGUCAAG”, with 0.204; and “GGUCACGUCUCAAUCAACUCAUUAGAGGGGGGGAAAACCCCUUUACCCUCGUUUUCAACAGCUCGCAGUCAAG”, with 0.199.
For “GGUCACGUCUCAAUCAACUCAUUUCCAGGAGUUUACUCCUGCUUAGUCAACAGCUCGCAGUCAAG” the value was 0.158.
Consider “GGUCACGUCUCAAUCAACUCGCAAGAGGGGGGGAAAACCCCUUUACCCUCAAAUUCAACAGCUCGCAGUCAAG”, for which the binding signal (log2 fold change) stood at 0.308.
Then “GGUCACGUCUCAAUCAACUCAUUCCCCAGGGAAAACCCUGGCUUAUUCAACAGCUCGCAGUCAAG”, with 0.07; and “GGUCACGUCUCAAUCAACUCUUCCCCCAGGGAAAACCCUGGCAUACUCAACAGCUCGCAGUCAAG”, with -0.0584.
For “GGUCACGUCUCAAUCAACUCAUCCCCAGGAGUUUCCUCCUGCUAACUCAACAGCUCGCAGUCAAG” the value was 0.194; for “GGUCACGUCUCAAUCAACUCAUCUCCAGGAGUUUCCUCCUGUAAUUUCAACAGCUCGCAGUCAAG”, 0.018.
In the case of “GGUCACGUCUCAAUCAACUCUUUUUCCAGGGAAACCCCUGGCUAUGUCAACAGCUCGCAGUCAAG”, the binding signal (log2 fold change) is -0.0917.
Regarding “GGUCACGUCUCAAUCAACUCCUCAGAGGGGGGGAAAACCCCUUUACCCUCGUCUUCAACAGCUCGCAGUCAAG”, the binding signal (log2 fold change) came to 0.0137.
Consider “GGUCACGUCUCAAUCAACUCAAUAGAGGGGGGGAAAACCCCUUUACCCUCCAAAUCAACAGCUCGCAGUCAAG”, for which the binding signal (log2 fold change) was determined as 0.0242.
For “GGUCACGUCUCAAUCAACUCUAACGAGGGGGGGAAAACCCCUUUACCCUCAAUAUCAACAGCUCGCAGUCAAG” the value was -0.373; for “GGUCACGUCUCAAUCAACUCAAUCCCAGGAGUUUACUCCUGUUAUCUCAACAGCUCGCAGUCAAG”, 0.165; for “GGUCACGUCUCAAUCAACUCUUUCUCCAGGGAAAACCCUGGUAUUUUCAACAGCUCGCAGUCAAG”, -0.0107.
In the case of “GGUCACGUCUCAAUCAACUCAUCCCCCAGGGAAAGCCCUGGUUUACUCAACAGCUCGCAGUCAAG”, the binding signal (log2 fold change) was -0.0211.
With “GGUCACGUCUCAAUCAACUCUACUCCCAGGGAAACCCCUGGCUAUCUCAACAGCUCGCAGUCAAG”, the binding signal (log2 fold change) is -0.0429.
Regarding “GGUCACGUCUCAAUCAACUCAUUCCCCAGGGAAAGCCCUGGCUAACUCAACAGCUCGCAGUCAAG”, the binding signal (log2 fold change) is -0.0276.
Then “GGUCACGUCUCAAUCAACUCUUUUUCCAGGGAAAUCCCUGGUAUUCUCAACAGCUCGCAGUCAAG”, with 0.125; and “GGUCACGUCUCAAUCAACUCUAUUUCAGGAGUUUACUCCUGCUUACUCAACAGCUCGCAGUCAAG”, with 0.108.
For “GGUCACGUCUCAAUCAACUCAUUUCCAGGAGUUUACUCCUGCUAUUUCAACAGCUCGCAGUCAAG”, the binding signal (log2 fold change) is -0.214.
On to “GGUCACGUCUCAAUCAACUCACUAGAGGGGGGGAAAACCCCUUUGCCCUCAUAAUCAACAGCUCGCAGUCAAG”, for which the binding signal (log2 fold change) stood at 0.0406.
Regarding “GGUCACGUCUCAAUCAACUCAACUUCAGGAGUUUACUCCUGUUAUCUCAACAGCUCGCAGUCAAG”, the binding signal (log2 fold change) is -0.219.
For “GGUCACGUCUCAAUCAACUCAUCGUCAGGAGUUUCCUCCUGCUAUUUCAACAGCUCGCAGUCAAG” the value was 0.0682.
Then “GGUCACGUCUCAAUCAACUCAUCCUCAGGAGUUUUCUCCUGCUAAUUCAACAGCUCGCAGUCAAG”, with 0.0964; and “GGUCACGUCUCAAUCAACUCUUUUCCCAGGGAAACCCCUGGCUAACUCAACAGCUCGCAGUCAAG”, with -0.01.
Consider “GGUCACGUCUCAAUCAACUCUAUUUCCAGGGAAAUCCCUGGUAUUCUCAACAGCUCGCAGUCAAG”, for which the binding signal (log2 fold change) was -0.112.
On to “GGUCACGUCUCAAUCAACUCUAUAGAGGGGGGGAAAACCCCUUUGCCCUCAUUAUCAACAGCUCGCAGUCAAG”, for which the binding signal (log2 fold change) was -0.251.
For “GGUCACGUCUCAAUCAACUCACAAGAGGGGGGGAAAACCCCUUUACCCUCACAAUCAACAGCUCGCAGUCAAG” the value was -0.0607; for “GGUCACGUCUCAAUCAACUCAAGUCCCAGGGAAAUCCCUGGCAAAUUCAACAGCUCGCAGUCAAG”, 0.162.

For the origin of these results see PMC5892938.
